The full ranking holds about 33,000 sequences; the median of “E-score (-0.5 to 0.5)” is about -0.011, and the highest 2% start at about 0.28. The list shows a part of the results.
Molecular target: T1, Gcr1 (UniProt P07261)
T1 sequence: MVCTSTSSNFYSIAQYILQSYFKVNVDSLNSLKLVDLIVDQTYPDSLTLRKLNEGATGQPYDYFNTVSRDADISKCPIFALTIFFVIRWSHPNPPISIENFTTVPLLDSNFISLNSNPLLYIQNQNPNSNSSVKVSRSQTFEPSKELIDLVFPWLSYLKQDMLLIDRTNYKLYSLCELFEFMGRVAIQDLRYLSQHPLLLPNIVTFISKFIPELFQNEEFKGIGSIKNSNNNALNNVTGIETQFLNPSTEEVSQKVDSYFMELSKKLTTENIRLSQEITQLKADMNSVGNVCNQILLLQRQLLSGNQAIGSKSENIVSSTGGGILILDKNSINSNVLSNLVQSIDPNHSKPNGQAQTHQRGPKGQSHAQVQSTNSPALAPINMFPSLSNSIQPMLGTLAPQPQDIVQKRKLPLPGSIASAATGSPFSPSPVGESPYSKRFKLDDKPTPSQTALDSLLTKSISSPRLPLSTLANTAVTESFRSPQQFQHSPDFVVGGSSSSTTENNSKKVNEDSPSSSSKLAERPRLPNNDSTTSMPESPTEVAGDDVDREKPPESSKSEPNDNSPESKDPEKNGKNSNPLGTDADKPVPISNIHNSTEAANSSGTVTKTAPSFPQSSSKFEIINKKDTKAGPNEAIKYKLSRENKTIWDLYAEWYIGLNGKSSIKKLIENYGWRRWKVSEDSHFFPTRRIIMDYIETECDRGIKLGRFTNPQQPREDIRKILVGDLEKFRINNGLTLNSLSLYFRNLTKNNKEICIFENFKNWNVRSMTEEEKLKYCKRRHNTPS
Assay: PBM E-score (8-mer binding enrichment) (E-score (-0.5 to 0.5)); higher = stronger / more preferred TF binding; most listed sequences are background and not binding sites
Settings: protein concentration: 100 nM; construct: GST-full length
Outline: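 E-scores (a modified Wilcoxon-Mann-Whitney statistic) were assigned by the Universal PBM Analysis Suite to every ungapped eight-base word pooled with its reverse complement. The input came from universal all-10-mer Agilent arrays made double-stranded by primer extension and probed with GST-tagged yeast transcription factors at about 100-200 nM. Fluorescent anti-GST detected bound protein, and masliner normalised the scans.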

Sequence	PBM E-score
ACTACCCC	-0.0635
AGTGCTAG	0.0817
GAACGGCC	-0.206
ATCGGAGA	-0.0782
ATGCGTTC	0.018
AACTAGCT	-0.113
CCTGCCAA	-0.111
AGAGGACG	0.18
CTACTTGC	-0.057
CTATACAC	-0.252
TATCTCCA	0.166
AAAACCCC	-0.0406
TCTACACA	-0.149
CCCGCAGA	0.182
AATCCTAG	0.0455
GCCTTGAA	-0.184
ATGCGAGG	0.0129
GCGGTTTA	-0.263
ATGCGATA	0.00653
CAAATGAA	-0.156
TCCCCCCA	-0.241
AGCCACGC	-0.127
CAAGGGCC	-0.103
AAGTTCCA	0.0995
ATAGTTTG	0.034

Sequence	PBM E-score
CCGCGACC	-0.0786
TAAAGTTA	0.127
GAGGCTCC	0.278
AAATTGCC	0.167
AAACGTTC	0.0275
AGCTGAGA	-0.0984
AGCTAGAA	0.0721
GGACGACC	-0.145
CAGCAACG	0.0545
CCCGGTCG	-0.211
ATGGCTCC	0.222
AGCAGCGG	0.0723
ACCGCTCT	0.0352
CTGATCTA	0.018
CTACCCCA	0.0207
CCAGCATC	0.217
AATCGTAA	0.0789
CATGAATC	-0.113
GTGCTGTA	-0.219
GAGACCGC	-0.00411
CGCTTGTC	-0.0873
TAAGGGCA	0.024
CAATCATA	-0.0206
ATCGGTAG	-0.0272
ACCAGGGC	-0.158

Sequence	PBM E-score
ATTCAAGC	-0.0491
ACTACGGA	-0.0242
AACACTGC	0.0352
TCTGGTCA	-0.0814
AGGAGTGG	0.134
CACTAGGC	-0.0409
CACCAAAA	0.126
CCAATGGC	0.0654
AGTCAGCC	-0.2
TACCCGGA	-0.0492
CCGAGTCA	-0.25
GATAAAAC	0.198
ACTCCGAA	0.205
AAAAGGTA	0.165
ACTATTAG	0.188
CATGTAAA	0.0253
GGAAGACA	0.0661
AATACCAT	-0.0711
TAGTCATA	-0.0432
ATAAAGAA	0.11
AAGCGAGC	0.0318
TGGACCCA	0.104
AACCAATC	0.111
AAATGAGT	0.04
ACGAAAGT	-0.0283

Sequence	PBM E-score
GCAAGCGC	-0.0657
GGACACCC	0.0834
ATAAGAGA	0.215
GTGAAATA	-0.029
ATAAAACC	-0.036
CTACGCGA	-0.115
AACTTCAA	0.128
ATACATAG	0.0321
CATGACAG	-0.142
CATCGCAA	-0.0571
ACACGACT	0.0276
GGACAACA	-0.253
ACCTTCGA	-0.345
CAGCTTAA	-0.0042
GAACCTGA	0.113
ACCCCTCA	-0.0444
GGAAAGTA	0.0705
CCCGTCAG	-0.0643
AACTGTGA	0.0857
TGCGCCCA	0.0933
TGACAAAA	0.101
AGATACAT	-0.00532
TCACGGGA	-0.00667
GATCATAA	0.0567
AAACATAC	-0.157

Sequence	PBM E-score
AGTCCTAC	-0.205
CATTAATC	-0.0468
GGAGGTCA	-0.141
AGGACCAT	-0.245
ATGCGATC	-0.0896
CACGACTG	-0.111
CCTACGGC	-0.146
TCGCGGCA	-0.0609
ACCGTTGC	-0.205
AGGTTGCG	0.136
TACGGTCA	-0.271
CGAGCTAC	0.121
CATAAGAA	0.218
GGAGCCTA	0.22
AAGTGCGC	0.0149
GTATAAAC	0.148
GAGGCGCA	0.0503
CCCAAATA	0.213
GAAGACCC	-0.0599
TAAATGGA	0.121
AGTATGGG	-0.0166
AAATAGGC	0.09
ATGTCAAG	-0.0991
CTAATAGC	0.00122
CGACTCCC	0.119

Sequence	PBM E-score
ACCATACT	0.169
AAAGATGC	0.0158
ATACCGAT	0.134
TAAGAAGA	0.243
AATTATAA	0.104
TACCTTGA	-0.0314
ATGAAAGG	0.0366
GCGAACCA	-0.0659
CCACGCAG	-0.141
ACTATAGG	-0.0743
CAAAGTAG	-0.113
AATCTCCA	0.0534
CGGGGGAC	-0.159
CATTGGAA	0.106
ACCATCAG	-0.169
CCCTGAGC	0.00173
ACTTCACC	-0.0786
AGCTTATA	-0.151
GGGCGTAA	-0.0371
CTGGCCTC	-0.133
CCTCTAAG	0.116
CCTAAGTC	-0.00559
AGTGAAAT	-0.0234
CCTGAACA	0.0287
GAGCCCAC	0.19

Sequence	PBM E-score
ACGGTGGA	-0.108
GACTTCTA	0.053
AGGCAGAC	-0.0945
ACTCGACT	0.0481
AAACCCGA	0.19
ACCTGCTG	-0.0246
AAGGAAGA	-0.00011
CCCATGTA	0.0594
CGCGAGAC	-0.152
AGGCATGC	0.0495
GTGATTGA	0.0896
CGCAAACC	-0.179
GGTTGAAA	-0.0848
AAGTGTAC	-0.186
AACTTCAG	-0.114
AGGAGTTC	-0.0621
CCATATTA	0.157
AAATGCAC	-0.131
TATGCCCA	-0.14
ATCAAGTG	0.00353
TAGTGTAA	-0.12
GGCCTCTA	0.0531
GAGATAGA	-0.108
TCCATGGA	0.0685
CCTACCTC	-0.0147

Sequence	PBM E-score
TACTTCAA	-0.113
CTACTGAA	0.0224
CGGGCAAG	-0.127
CCCCCGTA	-0.0842
GTCGGGAA	0.0614
ATTGTAGG	0.0792
CCCTGGAG	-0.0212
AGGGGACA	-0.00061
CCAAATTC	0.126
ATGACCCA	-0.286
CCCATAGC	-0.16
CTATATTA	0.307
CGTTCATC	-0.119
ATTACAGA	0.053
AAGAAGTG	0.108
ATACGTAC	-0.00136
AGAGTTGG	0.0173
GGTGGCAA	-0.082
CGTCTGAG	-0.0367
ATAATTGC	-0.00448
CAACGTAA	0.02
CGATAAGA	0.0795
CATGTCTC	-0.0982
CAAGGTAC	-0.102
AATAACAA	0.0356

Sequence	PBM E-score
GAAGGCCA	-0.0186
CACTACTG	-0.102
AAGAAAAG	-0.119
TCGTACAA	-0.0582
CCAAGCCA	-0.155
CCAGCTCA	-0.229
ACTTTGTC	-0.0253
CACTACCG	0.15
CCGGCTGA	-0.138
GGGGCGTA	-0.0317
GGTTCAAC	-0.0678
AAGATAGT	-0.0695
GAACACGA	0.108
ACAAGCCG	-0.0157
TCGACACA	0.0474
ATAGAGTA	-0.22
GGTGCGAA	0.201
ACCATTCA	-0.118
ACAGCCGC	-0.0946
CAACGCGG	0.0899
ATTGACCG	-0.0728
CCCAGATA	0.258
ATCTTATA	0.0687
CGCCCGAG	0.0978
ATAACATA	0.0609

Sequence	PBM E-score
ACTGCGTA	0.062
CTGGGTAA	-0.0479
ACTCCTAA	0.165
TCCACTAA	0.418
CGCGCAAA	0.0682
AAGGGCCA	-0.263
GATCATGA	-0.078
CTCATCAC	0.0152
GCTGCATA	-0.115
CACCTTGC	-0.0454
TGGCTACA	0.065
AAGGGAGA	-0.266
CAAACAAA	0.0175
AAGTGCTA	-0.0529
GGTTGGAC	-0.111
CGACGGTC	-0.344
CAAACAGC	-0.0108
AGCGTCGA	0.0269
AATGGCCA	-0.157
AGCTTTCA	-0.0144
ACCCCGAT	0.0265
AATCCGCA	0.224
AAGGTATC	0.158
CTGGCGTA	-0.138
CTATGGTC	-0.0106

Sequence	PBM E-score
AGGGCCTA	-0.186
CTGGCATC	0.304
ACGCTTTC	-0.0885
TCCGGTCA	-0.0853
AATGTGCT	-0.128
ATTGTACG	-0.0743
GTCCAGTA	0.142
AACACAAT	-0.0322
GAAACTAA	-0.00464
GCTATGAA	-0.062
ATACACGC	0.158
ATCGGGTG	0.117
CTGCCCCA	0.00254
GCAACACC	-0.0293
ATTTTTAA	0.14
CAAAGGAC	-0.127
CGATGGTA	-0.0911
AGTCAAGC	-0.22
ACGCGCCA	0.196
AGCTACGG	0.00843
TCGCGAGA	-0.018
GACGATGC	0.227
AATAACGG	0.00207
CCACCCAA	-0.0626
GGTGGCAC	-0.109

Sequence	PBM E-score
CTCCATCA	-0.0491
GCCGTTAC	0.0706
CTCCTGTC	0.148
ATAAGGAG	0.0626
CAACAAGG	-0.161
CTGTGCAC	-0.149
AAAAATGA	0.13
CAACTATC	-0.137
GCCACAGA	-0.152
CGAAACCG	0.0372
AATGGGCA	0.103
AGATCGGG	0.0723
GCTCTAAA	0.189
ATAAAAGA	0.154
CCTATTCC	0.00421
GCGTCGGA	-0.0151
CTACGATA	0.151
GTGGCGCA	-0.151
ATCACGTC	-0.147
AGACTGTA	-0.0498
AATGGTGG	-0.00912
ACTGTCGG	-0.0468
AATGAAAA	0.106
TCCTGAAA	0.0632
AGGTTATC	-0.0158

Sequence	PBM E-score
CCGTCCAC	0.016
CGGTTTAG	-0.0328
AGCAGAAT	-0.032
AGTCGGAA	0.159
TCCAGCAA	-0.0847
GGGTGACA	-0.0192
TAAACACA	0.0289
AGGATCCG	0.0808
ATGTCAAC	-0.125
AATGATTG	-0.0386
AGGTTCGA	-0.226
ACAAAGCC	-0.0591
ACGCAGAT	0.151
CTCCTTCC	-0.0893
ATCTGGGA	0.191
CAAGGGCG	-0.109
CGCGCATC	0.252
GACGGACC	-0.00011
GCTATGGA	-0.0422
AGGGAACT	-0.104
ATGAATAA	0.0631
ACAGTATC	-0.0479
AGCTAACT	0.0253
ACGCTTGG	-0.214
CTGCTTGA	0.0481

Sequence	PBM E-score
AGATAGAC	-0.273
GAATCAGA	0.0639
ATATATGC	0.0854
CAAGATTC	0.122
ACTGCGCT	-0.0318
TCGTACCA	0.126
AATGTGAA	-0.108
ACGGATTA	-0.168
ATATCATC	0.0387
CTAAACCA	-0.00416
AACCTCAC	0.0098
GCCAAGCC	-0.0285
CCACCACG	0.0648
CCAGTCTC	0.0261
AGATAGTG	0.13
GCTACCAA	0.179
GCCGCGCC	0.00673
ACTGGAGG	0.206
ATGTTCCA	0.15

Source: the supplement of paper PMC3334620
